The source of these data is PMC4336329 (PLoS ONE, 2015).

The campaign covered roughly 310,000 compounds. About 2,200 (0.71%) showed an effect of 50% or more. Effects have a minus sign here. This is one part of the list.

human ether-à-go-go-related gene (hERG) potassium channel, sequence (Q12809 whole entry, looked up): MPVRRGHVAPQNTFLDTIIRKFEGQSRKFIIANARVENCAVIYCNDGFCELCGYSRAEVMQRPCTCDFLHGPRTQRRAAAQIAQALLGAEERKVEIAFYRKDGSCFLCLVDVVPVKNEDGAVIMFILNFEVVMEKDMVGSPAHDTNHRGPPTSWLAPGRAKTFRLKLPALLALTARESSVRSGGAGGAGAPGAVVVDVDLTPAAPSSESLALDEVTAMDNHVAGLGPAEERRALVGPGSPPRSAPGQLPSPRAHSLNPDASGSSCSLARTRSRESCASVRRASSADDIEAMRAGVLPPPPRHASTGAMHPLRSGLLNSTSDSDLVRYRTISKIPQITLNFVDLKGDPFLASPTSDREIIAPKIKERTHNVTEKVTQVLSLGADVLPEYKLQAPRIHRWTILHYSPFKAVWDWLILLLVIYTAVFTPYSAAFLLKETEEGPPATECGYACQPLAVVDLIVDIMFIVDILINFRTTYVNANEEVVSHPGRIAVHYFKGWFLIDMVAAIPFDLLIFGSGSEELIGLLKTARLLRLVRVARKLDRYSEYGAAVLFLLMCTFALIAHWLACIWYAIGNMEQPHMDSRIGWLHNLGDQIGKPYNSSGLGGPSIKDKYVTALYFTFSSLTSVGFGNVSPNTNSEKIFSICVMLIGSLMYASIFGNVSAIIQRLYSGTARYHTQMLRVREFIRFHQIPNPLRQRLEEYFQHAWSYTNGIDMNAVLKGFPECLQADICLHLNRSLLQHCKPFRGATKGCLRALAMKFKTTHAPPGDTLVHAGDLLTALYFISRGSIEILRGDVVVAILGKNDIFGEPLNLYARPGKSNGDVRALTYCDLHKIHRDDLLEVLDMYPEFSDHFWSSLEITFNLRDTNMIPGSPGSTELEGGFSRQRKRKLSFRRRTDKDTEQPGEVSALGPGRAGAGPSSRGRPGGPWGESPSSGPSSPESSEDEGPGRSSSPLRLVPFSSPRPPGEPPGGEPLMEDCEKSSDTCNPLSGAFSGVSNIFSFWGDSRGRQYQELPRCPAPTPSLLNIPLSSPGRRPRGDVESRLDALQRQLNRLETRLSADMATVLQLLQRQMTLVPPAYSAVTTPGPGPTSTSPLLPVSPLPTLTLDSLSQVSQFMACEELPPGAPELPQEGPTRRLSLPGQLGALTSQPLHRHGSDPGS

The assay has as its target human ether-à-go-go-related gene (hERG) potassium channel (human, UniProt Q12809). Briefly: primary screen, population patch clamp on CHO cells stably expressing hERG.
For the compound `O=S(=O)(NCc1cccnc1)c1ccc2ccccc2c1`, the “hERG current change (%, negative = inhibition) at 1uM” value is 12.2%.
With `C/C(=N\Nc1ccc([N+](=O)[O-])cc1)c1ccc(N2CCOCC2)cc1` the figure was 10.1%; with `COc1cccc(-c2n[nH]c3c2CCC3)c1`, 5.46%.
With `CC(C)(C)n1nnnc1C(c1ccncc1)N1CCCCCC1` (stereo not drawn) the figure was 9.52%.
As to `CCCn1c(N)c(C(=O)CSc2nnc(C3CC3)n2Cc2ccccc2)c(=O)n(C)c1=O`, the “hERG current change (%, negative = inhibition) at 1uM” value was 2.06%.
With `COc1ccc(C(=O)O)cc1S(=O)(=O)Nc1ccccc1-c1ccccc1` the figure was 10.7%; with `NC(=O)c1nsc(C(=O)N(c2cccc(F)c2)C(C(=O)NCC2CCCO2)c2cccs2)c1N` (stereo not drawn), 12.1%; with `CN(/N=C/c1ccccc1O)C(=S)c1ccccc1`, 8.65%.
With `O=C(Nc1cccc2ncccc12)c1ccc(-c2ccc(Cl)cc2Cl)o1` the figure was -0.858%.
Take `O=C(CSc1nnc(COc2ccccc2)o1)NCCc1ccccc1`: the “hERG current change (%, negative = inhibition) at 1uM” value amounted to 7.98%.
With `O=C(O)C(=O)/C(=C\c1cccc(Cl)c1)c1ccc2ccccc2n1` the figure was -4.78%.
As to `CC1Cc2ccccc2N1Cc1cc(=O)n2ccsc2n1` (stereo not drawn), the “hERG current change (%, negative = inhibition) at 1uM” value was 10.2%.
As for `O=Cc1cc2ccccc2nc1SCc1ccc(Cl)cc1`, the figure is 4.51%; as for `O=C(C1CC(=O)N(c2ccc3c(c2)OCCO3)C1)N1CCN(c2ccccc2O)CC1` (stereo not drawn), 2.38%.
For the compound `COc1ccc(OC)c(NC(=O)C(Sc2ccccc2)c2ccccc2)c1` (stereo not drawn), the “hERG current change (%, negative = inhibition) at 1uM” value is given as 6.46%.
For the compound `Cc1nc2ccccc2c2nc(NC(=O)C(F)(F)F)nn12`, the “hERG current change (%, negative = inhibition) at 1uM” value came to 1.73%.
With `CCOC(=O)Nc1ccc(S(=O)(=O)N(C)C(C)C)cc1` the figure was 4.98%; with `Cc1ccc(S(=O)(=O)N2CCC(C(=O)NCCN3CCCCCC3)CC2)cc1`, -4.77%; with `CC(=O)Oc1cccc(N2C(=O)C3C4C=CC(C4=C(C)C)C3C2=O)c1` (stereo not drawn), 15.5%.
For `COc1ccc([N+](=O)[O-])cc1NC(=O)Cc1c(Cl)cccc1Cl`, the “hERG current change (%, negative = inhibition) at 1uM” value was 13.2%.
As for `Cc1ccc(C(=O)CCc2ccc(N)cc2)cc1`, the figure is 11.8%.
As for `CC(NC(=O)NC(=O)c1ccc(Cl)cc1Cl)C1CC1` (stereo not drawn), the figure is 5.49%; as for `COc1ccccc1C/C(N)=N/OC(=O)COc1cccc(C)c1C`, 6.44%; as for `Cc1ccc2[nH]nc(C(=O)N3CCCC(C(=O)c4ccc(Cl)cc4)C3)c2c1` (stereo not drawn), 19.6%.
As for `O=S(=O)(c1ccccc1)c1ccccc1/C=N\O`, the figure is 0.466%.
With `CC1SC(c2ccc(Cl)cc2Cl)NC1=O` (stereo not drawn), the “hERG current change (%, negative = inhibition) at 1uM” value came out at 12.2%.
As to `COC(=O)c1sc(C(=O)OC)c(C(=O)OC)c1C(=O)OC`, the “hERG current change (%, negative = inhibition) at 1uM” value came to 2.77%.
With `Cc1ccc(C(=O)CSc2nnnn2C(C)C)c(C)c1` the figure was 12.7%; with `CC12CCC(C(=O)NCc3cccnc3)(OC1=O)C2(C)C` (stereo not drawn), 11.9%; with `CCOc1ccc(N(CC(=O)NC2CCCCC2)S(=O)(=O)c2ccccc2)cc1`, 15.3%.
With `Nc1nc(C23CC4CCC(CC(C4)C2)C3)cs1` the figure was 5.49%; with `CC(NC(=S)Nc1ccc(Cl)cc1)C(c1ccccc1)N1CCOCC1` (stereo not drawn), 6.38%.
As for `COc1ccc(NC(=O)C2CCN(S(=O)(=O)c3ccc4c(c3)NC(=O)C(C)S4)CC2)cc1` (stereo not drawn), the figure is 12.4%; as for `CCC(O)C1CCN(C(=O)c2cc(COc3ccc4ncccc4c3)on2)CC1` (stereo not drawn), 17.1%; as for `N#C/C(=C\c1coc2ccc(O)cc2c1=O)C(=O)Nc1nc2ccccc2s1`, 12%.
For the compound `COc1ccc(CCNc2oc(-c3ccco3)nc2C#N)cc1`, the “hERG current change (%, negative = inhibition) at 1uM” value was determined as 13.4%.
For `COc1ccc(N(CC(=O)N2CCc3ccccc3C2)S(=O)(=O)c2c(C)[nH]c(=O)[nH]c2=O)cc1`, the “hERG current change (%, negative = inhibition) at 1uM” value is 11.9%.
Take `Cc1cc(C)c(NC(=O)C2CCCN2CCOC(=O)c2cccc([N+](=O)[O-])c2)c(C)c1.Cl` (stereo not drawn): the “hERG current change (%, negative = inhibition) at 1uM” value came to 2.29%.
With `Cc1ccccc1OCCn1c(S(=O)(=O)O)nc2c(N)ncnc21` the figure was 12.8%; with `CCOc1ccc(NS(=O)(=O)c2coc(C(N)=O)c2)cc1`, 8.93%; with `COC(=O)NCC(C)OC(=O)Nc1ccc(Cl)cc1` (stereo not drawn), 12.7%.
With `O=C(O)C(=O)O.OCCNCCCCOc1cccc(Br)c1` the figure was 0.273%; with `CC(C)Nc1nc(-c2ccccc2)nnc1-c1ccccc1`, 0.584%; with `Cc1ccc(NC(=O)c2cc3ccccc3o2)cc1`, 16.8%.
On to `CCN(C(=O)COC(=O)CNS(=O)(=O)c1ccc2ccccc2c1)C1CCCCC1`, for which the “hERG current change (%, negative = inhibition) at 1uM” value is listed as -0.0079%.
`COc1ccc2[nH]c3c(c2c1)CCN1C(=O)N([C@@H](C)C(=O)NCC2CCCO2)C(=O)[C@]31C` (stereo partly drawn): the “hERG current change (%, negative = inhibition) at 1uM” value was 2.2%.
As for `CC1(C)CC(=O)C2=C(C1)NC(Nc1nc3ccccc3o1)=NC2c1ccccn1` (stereo not drawn), the figure is -5.1%; as for `O=C(Cn1cc(/C=C\[N+](=O)[O-])c2ccccc21)Nc1ccccc1`, 8.45%.
In the case of `CC1CCCC(C)N1C(=O)COC(=O)Cn1cnc2c1c(=O)n(C)c(=O)n2C` (stereo not drawn), the “hERG current change (%, negative = inhibition) at 1uM” value is 19.6%.
In the case of `CCOC(=O)c1oc2ccc(S(=O)(=O)Nc3ccc4c(c3)n(C)c(=O)n4C)cc2c1C`, the “hERG current change (%, negative = inhibition) at 1uM” value is reported as 2.26%.
As for `CC(=O)NC(O)C(=O)c1ccccc1` (stereo not drawn), the figure is 19.5%.
As for `Cc1cc(C2C(C#N)=C(N)Oc3n[nH]c(C)c32)c(C)s1` (stereo not drawn), the figure is 20.4%; as for `Cc1cc(=O)[nH]c2c1c(=O)[nH]n2C1CC(C)N(C)CC1C` (stereo not drawn), 12.3%; as for `O=C(NCCc1ccccn1)C1CC(=O)N(Cc2ccccc2Cl)C1` (stereo not drawn), 4.09%.
`O=C(CCN1C(=O)C2CC=CCC2C1=O)NC1CCCCC1` (stereo not drawn): the “hERG current change (%, negative = inhibition) at 1uM” value is -1.06%.
As for `CCCc1c(NC(=O)Nc2ccc(F)cc2)cnn1-c1ccccc1`, the figure is 11.9%; as for `Cc1ccc(S(=O)(=O)N2CCN(C(=O)COC(=O)c3ccc(Br)o3)CC2)c(C)c1`, 16%.
As for `CCOc1ccccc1CNC(=O)CCC(=O)N1Cc2ccccc2Oc2ncccc21`, the “hERG current change (%, negative = inhibition) at 1uM” value is 11.5%.
`CC(=O)Nc1cccc(S(C)(=O)=O)c1`: the “hERG current change (%, negative = inhibition) at 1uM” value stood at 8.17%.
`COc1ccc(/C=C/C(=O)c2ccccc2O)cc1CN1CCOCC1`: the “hERG current change (%, negative = inhibition) at 1uM” value is 10.6%.
With `Cc1csc(SCC(=O)Nc2cc(S(=O)(=O)N3CCCC3)ccc2Cl)n1` the figure was 5.78%; with `CC1(C)CC2CC(C)(CN2S(=O)(=O)c2cccc(N)c2)C1` (stereo not drawn), 11.8%.
As for `Cc1cccc2sc(NS(C)(=O)=O)nc12`, the figure is 17.2%.
Take `Cc1nnc2n(-c3ccccc3)c(=O)c3c4c(sc3n12)COC(C)(C)C4`: the “hERG current change (%, negative = inhibition) at 1uM” value turned out to be 0.998%.
Regarding `C=CCN1CCN(C(=O)c2ccc3c(c2)OCO3)CC1`, the “hERG current change (%, negative = inhibition) at 1uM” value stood at 11.7%.
As for `O=C(COC(=O)c1cccnc1Nc1ccccc1F)NC1CC1`, the figure is 7.21%; as for `C=CCn1c(-c2cccc([N+](=O)[O-])c2)n[nH]c1=S`, 16%; as for `CCOC(=O)c1ccc2[nH]c(-c3ccc(S(=O)(=O)F)cc3)cc(=O)c2c1`, 11%.
Take `Cc1ccc(Oc2ncccc2/C=N/OCc2ccc(Cl)c(Cl)c2)cc1`: the “hERG current change (%, negative = inhibition) at 1uM” value was found to be 12.6%.
With `Cc1cc(SCC(=O)c2cccc([N+](=O)[O-])c2)nc(=O)[nH]1`, the “hERG current change (%, negative = inhibition) at 1uM” value was found to be 18.5%.
For the compound `O=C(CCSCc1ccccc1F)N1CCN(c2ccccn2)CC1`, the “hERG current change (%, negative = inhibition) at 1uM” value is recorded as -6.63%.
As for `Cl.O=C(NN1C(=O)CSC1=S)c1cccnc1`, the figure is 11.9%; as for `C/C(=N/NC(=O)c1cccs1)c1cccs1`, 8.98%; as for `O=C(CC12CC3CC(CC(C3)C1)C2)NCCN1CCOCC1`, 2.55%.
As for `Cc1cc(Cn2nc(C(=O)NCc3cccs3)cc2-c2ccccc2)on1`, the figure is -11.8%.
As for `Cc1noc(C)c1COc1ccccc1C(=O)NNC(=O)c1ccccc1F`, the “hERG current change (%, negative = inhibition) at 1uM” value is reported as -4.18%.
On to `O=C(Cc1ccc([N+](=O)[O-])cc1)N1CCc2ccccc2C1`, for which the “hERG current change (%, negative = inhibition) at 1uM” value was -1.71%.
As for `COc1cc(CNCCO)cc(Br)c1OCc1ccccc1.Cl`, the “hERG current change (%, negative = inhibition) at 1uM” value was -4.71%.
With `CCOc1ccc(/C=N/NC(=O)c2ccc(F)cc2)cc1CN1CC2CC(C1)c1cccc(=O)n1C2` (stereo not drawn), the “hERG current change (%, negative = inhibition) at 1uM” value amounted to 11.1%.
With `COc1ccc(CCN2C(=NC(=O)C(C)C)SC3CS(=O)(=O)CC32)cc1` (stereo not drawn), the “hERG current change (%, negative = inhibition) at 1uM” value stood at 9.19%.
With `CCOC(=O)c1cc2c(=O)[nH]ccc2nc1C(F)(F)F` the figure was 8.16%; with `CCCCC12CN3CCN(CC(C3)/C1=N\NC(=O)c1ccccc1N)C2`, -15.3%; with `Cc1nc2scc(C)n2c(=O)c1S(=O)(=O)N1CCN(c2ccc(F)cc2)CC1`, 6.86%.
Regarding `Cc1ccc(S(=O)(=O)N2CCC(C(=O)Nc3ccc4c(c3)COC4=O)CC2)cc1`, the “hERG current change (%, negative = inhibition) at 1uM” value was determined as 10.2%.
As to `O=C(CCc1ccccc1)NNC(=S)NCCc1ccccc1`, the “hERG current change (%, negative = inhibition) at 1uM” value was found to be 9.98%.
With `COc1ccccc1NC(=O)/C=C/c1ccc(OC)c(S(=O)(=O)N2CCOCC2)c1` the figure was 9.09%; with `O=C(CC1C(=O)NCCN1Cc1ccc(-c2ccccc2)cc1)NCc1ccccc1` (stereo not drawn), 6.77%; with `Cc1ccc(C(=O)Nc2ccc(Br)cc2)cc1S(=O)(=O)Nc1ccccn1`, 13.5%.
With `Cc1nc(NCc2cccnc2)c2c3c(sc2n1)CCCC3` the figure was -7.05%; with `CCOC(=O)NC(=O)/C(C=Nc1ccc(Cl)cc1)=C(\C)O`, 14.6%.
